Some of the results follow.
Tests used:
Assay in all cases: glycan array binding signal (z-score within array); higher = stronger binding
Conditions in all cases: glycan notation: IUPAC condensed, linker removed
[1] = target: Gal(b1-4)GlcNAc(b1-3)Gal(b1-4)[Fuc(a1-3)]GlcNAc(b1-3)Gal(b1-4)[Fuc(a1-3)]GlcNAc
How it was run: (§1)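 The binding signal is a Z-score computed within each array. Data were drawn from 3228 arrays in the Consortium for Functional Glycomics database, restricted to those with a known protein sequence. Scores were averaged over arrays of the same protein sequence at different concentrations or buffers, and over linkers, and negative values can be taken as non-binding.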

[2] = target: Gal(b1-4)GlcNAc(b1-3)GalNAc
How it was run: as §1

[3] = target: Gal(b1-4)GlcNAc(b1-3)[Gal(b1-4)GlcNAc(b1-6)]Gal(b1-4)GlcNAc
How it was run: as §1

[4] = target: Gal(b1-4)GlcNAc(b1-3)[Gal(b1-4)GlcNAc(b1-6)]GalNAc
How it was run: as §1

[5] = target: Gal(b1-4)GlcNAc(b1-3)[GlcNAc(b1-6)]Gal(b1-4)GlcNAc
How it was run: as §1

[6] = target: Gal(b1-4)GlcNAc(b1-6)Gal(b1-4)GlcNAc
How it was run: as §1

[7] = target: Gal(b1-4)GlcNAc(b1-6)GalNAc
How it was run: as §1

[8] = target: Gal(b1-4)GlcNAc(b1-6)[Gal(b1-3)]GalNAc
How it was run: as §1

Gal3S(b1-3)GalNAc = target: Gal3S(b1-3)GalNAc
How it was run: as §1

Gal3S(b1-3)GlcNAc = target: Gal3S(b1-3)GlcNAc
How it was run: as §1

[9] = target: Gal3S(b1-3)[Fuc(a1-4)]GlcNAc
How it was run: as §1

Gal3S(b1-4)Glc = target: Gal3S(b1-4)Glc
How it was run: as §1

Gal3S(b1-4)Glc6S = target: Gal3S(b1-4)Glc6S
How it was run: as §1

Gal3S(b1-4)GlcNAc = target: Gal3S(b1-4)GlcNAc
How it was run: as §1

Gal3S(b1-4)GlcNAc6S = target: Gal3S(b1-4)GlcNAc6S
How it was run: as §1

[10] = target: Gal3S(b1-4)[Fuc(a1-3)]Glc
How it was run: as §1

[11] = target: Gal3S(b1-4)[Fuc(a1-3)]Glc6S
How it was run: as §1

Gal3S4S(b1-4)GlcNAc = target: Gal3S4S(b1-4)GlcNAc
How it was run: as §1

Gal3S6S(b1-4)GlcNAc = target: Gal3S6S(b1-4)GlcNAc
How it was run: as §1

Gal3S6S(b1-4)GlcNAc6S = target: Gal3S6S(b1-4)GlcNAc6S
How it was run: as §1

Gal4S(b1-4)GlcNAc = target: Gal4S(b1-4)GlcNAc
How it was run: as §1

Gal4S6S(b1-4)GlcNAc = target: Gal4S6S(b1-4)GlcNAc
How it was run: as §1

Gal6S(b1-4)Glc = target: Gal6S(b1-4)Glc
How it was run: as §1

Gal6S(b1-4)Glc6S = target: Gal6S(b1-4)Glc6S
How it was run: as §1

Gal6S(b1-4)GlcNAc = target: Gal6S(b1-4)GlcNAc
How it was run: as §1

Gal6S(b1-4)GlcNAc6S = target: Gal6S(b1-4)GlcNAc6S
How it was run: as §1

GalNAc(a1-3)Gal = target: GalNAc(a1-3)Gal
How it was run: as §1

GalNAc(a1-3)GalNAc = target: GalNAc(a1-3)GalNAc
How it was run: as §1

[12] = target: GalNAc(a1-3)GalNAc(a1-3)Gal(a1-4)Gal(b1-4)GlcNAc
How it was run: as §1

GalNAc(b1-3)Gal = target: GalNAc(b1-3)Gal
How it was run: as §1

[13] = target: GalNAc(b1-3)Gal(a1-4)Gal(b1-4)GlcNAc
How it was run: as §1

[14] = target: GalNAc(b1-3)Gal(a1-4)Gal(b1-4)GlcNAc(b1-3)Gal(b1-4)Glc
How it was run: as §1

[15] = target: GalNAc(b1-3)Gal(a1-6)Gal(b1-4)Glc
How it was run: as §1

GalNAc(b1-3)GalNAc = target: GalNAc(b1-3)GalNAc
How it was run: as §1

GalNAc(b1-4)GlcNAc = target: GalNAc(b1-4)GlcNAc
How it was run: as §1

[16] = target: GalNAc(b1-4)GlcNAc(b1-2)Man(a1-3)[GalNAc(b1-4)GlcNAc(b1-2)Man(a1-6)]Man(b1-4)GlcNAc(b1-4)GlcNAc
How it was run: as §1

Glc(a1-4)Glc = target: Glc(a1-4)Glc
How it was run: as §1

Glc(a1-6)Glc(a1-6)Glc = target: Glc(a1-6)Glc(a1-6)Glc
How it was run: as §1

Glc(b1-4)Glc = target: Glc(b1-4)Glc
How it was run: as §1

Glc(b1-6)Glc = target: Glc(b1-6)Glc
How it was run: as §1

GlcA(b1-3)Gal = target: GlcA(b1-3)Gal
How it was run: as §1

GlcA(b1-3)GlcNAc = target: GlcA(b1-3)GlcNAc
How it was run: as §1

GlcA(b1-6)Gal = target: GlcA(b1-6)Gal
How it was run: as §1

[17] = target: GlcNAc(a1-3)Gal(b1-4)GlcNAc
How it was run: as §1

[18] = target: GlcNAc(a1-4)Gal(b1-3)GlcNAc
How it was run: as §1

B1: Lmo1413 (Listeria monocytogenes), Q8Y783 (protein)
chain: MKHAKKSLFTFIIFMTILSITFNPFSAKAAPLMLNLPAPQVDQLYIGDDYITGKLQQEVPMHYPGNAAYVLFNNKQYNITDYTVENDVNFRLKLPKTLEAGDTLNYFTITGNVLDPVAYPGQESYKLAGPFSPIEKANIQVNYVDETNQTLATSDTLSGKLGETYTTSPKAIDGYQVKETPTNATGTYTTNTETIQINYVYEKTAVEGANVSVEYINEATNESIAPTETLSGKIGTTFQAEVKEIDGYELSQVPSNQSGTYTDQTQSVIFKYKKITTPDEVAKDVTVTYKDTKGNQLADPVILKGDIGSTFETEAKSFKGYKLTKTPSNHSSVFTSDSQEVEYVYSKDDAVITPPVTPVNPDKPIINPVKPVNPATSTVPNKNISKKNTTKTVNQTGKTSTALQLPKTGDSENNLPLIIGVSLLISGVYIFTTRRKRVK
[1]
  glycan array binding signal (z-score): -0.21
[2]
  glycan array binding signal (z-score): -0.159
[3]
  glycan array binding signal (z-score): -0.176
[4]
  glycan array binding signal (z-score): -0.234
[5]
  glycan array binding signal (z-score): 0.359
[6]
  glycan array binding signal (z-score): 0.233
[7]
  glycan array binding signal (z-score): 0.3
[8]
  glycan array binding signal (z-score): -0.058
Gal3S(b1-3)GalNAc
  glycan array binding signal (z-score): 0.564
Gal3S(b1-3)GlcNAc
  glycan array binding signal (z-score): -0.101
[9]
  glycan array binding signal (z-score): -0.055
Gal3S(b1-4)Glc
  glycan array binding signal (z-score): -0.163
Gal3S(b1-4)Glc6S
  glycan array binding signal (z-score): -0.125
Gal3S(b1-4)GlcNAc
  glycan array binding signal (z-score): -0.163
Gal3S(b1-4)GlcNAc6S
  glycan array binding signal (z-score): -0.052
[10]
  glycan array binding signal (z-score): -0.07
[11]
  glycan array binding signal (z-score): -0.185
Gal3S4S(b1-4)GlcNAc
  glycan array binding signal (z-score): -0.058
Gal3S6S(b1-4)GlcNAc
  glycan array binding signal (z-score): -0.21
Gal3S6S(b1-4)GlcNAc6S
  glycan array binding signal (z-score): -0.163
Gal4S(b1-4)GlcNAc
  glycan array binding signal (z-score): -0.075
Gal4S6S(b1-4)GlcNAc
  glycan array binding signal (z-score): 0.031
Gal6S(b1-4)Glc
  glycan array binding signal (z-score): 0.139
Gal6S(b1-4)Glc6S
  glycan array binding signal (z-score): 0.125
Gal6S(b1-4)GlcNAc
  glycan array binding signal (z-score): 0.056
Gal6S(b1-4)GlcNAc6S
  glycan array binding signal (z-score): 0.06
GalNAc(a1-3)Gal
  glycan array binding signal (z-score): -0.115
GalNAc(a1-3)GalNAc
  glycan array binding signal (z-score): 0.042
[12]
  glycan array binding signal (z-score): -0.181
GalNAc(b1-3)Gal
  glycan array binding signal (z-score): -0.182
[13]
  glycan array binding signal (z-score): -0.219
[14]
  glycan array binding signal (z-score): -0.168
[15]
  glycan array binding signal (z-score): 0.128
GalNAc(b1-3)GalNAc
  glycan array binding signal (z-score): -0.048
GalNAc(b1-4)GlcNAc
  glycan array binding signal (z-score): -0.13
[16]
  glycan array binding signal (z-score): -0.233
Glc(a1-4)Glc
  glycan array binding signal (z-score): 2.23
Glc(a1-6)Glc(a1-6)Glc
  glycan array binding signal (z-score): -0.034
Glc(b1-4)Glc
  glycan array binding signal (z-score): 1.27
Glc(b1-6)Glc
  glycan array binding signal (z-score): 0.048
GlcA(b1-3)Gal
  glycan array binding signal (z-score): -0.041
GlcA(b1-3)GlcNAc
  glycan array binding signal (z-score): 1.78
GlcA(b1-6)Gal
  glycan array binding signal (z-score): 0.693
[17]
  glycan array binding signal (z-score): 1.66
[18]
  glycan array binding signal (z-score): -0.24

Reference: the supplement of paper PMC8728848
